± gives the standard deviation of the averaged measurements. In all, about 33,000 sequences were measured (“E-score (dimensionless, -0.5 to 0.5)”: median about -0.049, highest 2% from about 0.37 on). Some of the results follow.
These sequences were tested on T1, PmTbr T-box DNA-binding domain (GST fusion) (assay: PBM E-score of 8-mer (E-score (dimensionless, -0.5 to 0.5)); Tbr is Tbrain of the sea star Patiria miniata (Pm) or the sea urchin Strongylocentrotus purpuratus (Sp); higher = stronger binding preference; most listed sequences are background and not binding sites). Details: the construct has about 5 more residues each side.
T1 sequence: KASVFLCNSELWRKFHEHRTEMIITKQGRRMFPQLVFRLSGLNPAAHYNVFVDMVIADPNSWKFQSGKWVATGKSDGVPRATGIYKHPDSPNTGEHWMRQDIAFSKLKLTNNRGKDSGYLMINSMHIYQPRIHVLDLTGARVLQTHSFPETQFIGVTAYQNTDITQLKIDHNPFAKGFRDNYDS
Summary of the method: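 Using the Universal PBM Analysis Suite, every ungapped 8-mer received an enrichment E-score averaged over duplicate arrays. Probe intensities came from double-stranded Universal Agilent oligonucleotide arrays incubated with 200 nM GST-fused Tbr T-box DNA-binding domain in PBS (pH 7.5). That protein was expressed in BL21 E. coli at 20 °C and purified by glutathione affinity chromatography.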

Sequence	PBM E-score of 8-mer
CAGTCATA	-0.0954 ± 0.04
GATCGACC	-0.0814 ± 0.0024
ACCCGACC	-0.08196 ± 0.00028
CCGCTTGA	-0.034 ± 0.026
GCGTGGCA	0.0685 ± 0.054
AACAGGCG	0.1205 ± 0.00094
ATAATGTA	-0.213 ± 0.04
CAGTGTTA	0.322 ± 0.0036
CAGCTATG	0.0981 ± 0.028
CATGGACA	0.0711 ± 0.019
GTCGCGCA	0.199 ± 0.039
CTACCCAA	-0.175 ± 0.086
CATGTCCA	-0.151 ± 0.064
CTACAAAG	-0.214 ± 0.01
GATCAGAA	-0.138 ± 0.043
AGTGACAG	0.357 ± 0.0084
CATTCAGC	-0.161 ± 0.0035
AAGGGCAA	-0.182 ± 0.04
ATACCCCG	-0.1527 ± 0.00053
ACTCTACG	0.0543 ± 0.0073
ACAGCGTA	-0.0359 ± 0.026
GAAGGACA	-0.0775 ± 0.028
GGAAACCA	-0.1389 ± 0.00081
ACTTGTCG	0.30022 ± 4.9e-05
CAATCAAC	-0.0642 ± 0.048

Sequence	PBM E-score of 8-mer
GGCCTGAA	-0.0982 ± 0.032
AGTTTCTC	0.11 ± 0.029
AAATGTAA	0.0753 ± 0.021
ACCATTTC	-0.0217 ± 0.073
CCCGTAAG	-0.0921 ± 0.11
AACCCATC	-0.242 ± 0.016
ATGGACAT	-0.195 ± 0.025
CCTCTTTA	-0.0767 ± 0.023
GTAGTGTA	0.00343 ± 0.048
GCTAAAGC	-0.0616 ± 0.096
CCTAGATC	-0.0223 ± 0.021
ATTATTGG	-0.0933 ± 0.025
ACTCTGCA	0.00895 ± 0.053
CGTACAGC	-0.0541 ± 0.021
GCGAGCCA	-0.00686 ± 0.019
CAGATCGG	-0.0439 ± 0.039
ATCACCTG	0.379 ± 0.019
TAAGTGAA	-0.101 ± 0.1
CGCCACCC	0.204 ± 0.06
GGCAAGAC	-0.0607 ± 0.05
GACCCAAA	-0.097 ± 0.012
GTTATTCA	-0.231 ± 0.022
ATGCACTA	-0.173 ± 0.11
AGCGATAT	0.115 ± 0.019
GCCCTCCC	-0.251 ± 0.038

Sequence	PBM E-score of 8-mer
CCAATTGA	-0.211 ± 0.034
CAAAATAC	-0.134 ± 0.13
ACGCACTC	0.165 ± 0.016
AGTAGCAT	-0.127 ± 0.067
AAACTTGA	-0.0413 ± 0.01
AAGACTCA	0.119 ± 0.019
AGTTGCAA	0.0923 ± 0.04
GCCCCCCA	-0.261 ± 0.042
ATGCTGCA	-0.1863 ± 0.0017
ACTTTTCT	0.0687 ± 0.099
GCTACAGC	-0.2 ± 0.12
ACTGCCGA	-0.0354 ± 0.01
CACACAAC	0.279 ± 0.035
AAACAGTT	0.072 ± 0.084
GATTGGCC	-0.196 ± 0.029
AATAATGG	-0.255 ± 0.014
TAACTAGA	-0.1774 ± 0.001
CAATCACG	0.148 ± 0.026
TGTAAGAA	0.0715 ± 0.045
ATAAACAG	-0.0319 ± 0.083
CGGTTATC	0.121 ± 0.016
GGTAGATA	-0.223 ± 0.064
AACCCGCT	0.0617 ± 0.0066
ACTGAATA	-0.11 ± 0.046
TCCGGCAA	0.0485 ± 0.017

Sequence	PBM E-score of 8-mer
CGAGGTAA	-0.0254 ± 0.017
CTTAGGTA	-0.259 ± 0.019
AGAGACCA	-0.065 ± 0.031
AACGACTA	-0.089 ± 0.0069
ATGATACA	-0.00224 ± 0.0098
AAATACTT	0.00657 ± 0.095
GGCGTAAC	0.0918 ± 0.041
ACATACGC	0.112 ± 0.091
CTATGGGA	-0.062 ± 0.059
AAGTGCCC	-0.143 ± 0.0036
ACCTTTCA	0.139 ± 0.07
GACGATCC	-0.0686 ± 0.12
ACGCGGCG	0.0746 ± 0.07
GTCCTAGA	-0.174 ± 0.092
AAACCATG	-0.027 ± 0.02
TGACGTCA	0.105 ± 0.042
AGAACAGC	-0.0931 ± 0.0076
ATCATAGC	0.0043 ± 0.09
GAACTACC	-0.196 ± 0.1
CTGCTGAC	0.0546 ± 0.045
CTAATCTA	-0.00937 ± 0.0061
GAACACGC	0.106 ± 0.025
ACGCTCAC	0.183 ± 0.048
GTCAGATA	-0.129 ± 0.093
CTGATTGC	-0.00855 ± 0.036

Sequence	PBM E-score of 8-mer
GATACAGC	-0.197 ± 0.018
TCTTAAGA	-0.108 ± 0.065
CTCGGAGA	-0.275 ± 0.014
AAATCGGG	-0.0434 ± 0.033
ATATCTAA	-0.211 ± 0.025
CTCCAATC	-0.185 ± 0.0044
ATATTGTC	0.195 ± 0.053
GCCCAACC	-0.0859 ± 0.026
CAGACACG	0.105 ± 0.062
ATGCTAAG	0.0339 ± 0.034
AACGTGTG	0.3941 ± 0.0015
AAGAGCCT	-0.306 ± 0.023
CGCAAAAC	0.0965 ± 0.0024
ACTGCACT	-0.165 ± 0.03
CACGAATG	-0.00445 ± 0.0028
CTTGAGAC	0.0337 ± 0.048
CATGACCG	-0.206 ± 0.012
ACGCCTTC	0.3639 ± 0.0026
AGACCTCT	-0.301 ± 0.015
ATAGGTAA	0.0508 ± 0.015
AGTTAATA	0.0455 ± 0.017
AGACAGCT	0.113 ± 0.035
CTCACCGC	0.055 ± 0.076
GCACCCGC	0.333 ± 0.012
CGAATCGC	0.218 ± 0.0082

Sequence	PBM E-score of 8-mer
AGGGTGAT	0.197 ± 0.018
ATCCTGCG	-0.157 ± 0.084
TCCTTCCA	-0.232 ± 0.018
CATTATTC	-0.213 ± 0.0042
GGGAAGAA	-0.156 ± 0.046
ATAGGTCG	-0.112 ± 0.028
ACACAAGG	0.195 ± 0.041
ACTGCACA	0.142 ± 0.028
CATCGTCG	0.2049 ± 0.00059
ATGCCCAT	-0.193 ± 0.0043
CGAAGACC	-0.0591 ± 0.03
CTTTGAGC	-0.133 ± 0.048
CTCTTAAG	-0.267 ± 0.032
AGTCGCCA	0.242 ± 0.01
ATCCCCGG	-0.114 ± 0.02
TCTCGTAA	-0.0267 ± 0.083
GTATTCAC	0.268 ± 0.06
CCCAGTCG	-0.102 ± 0.12
AAACGTAC	-0.18 ± 0.07
ATGCTACG	0.0591 ± 0.015
ATACGTAG	-0.345 ± 0.042
GTTCTGCA	-0.122 ± 0.1
AATTTCTG	-0.149 ± 0.053
GAGCATAA	-0.0887 ± 0.028
AAATTTAA	-0.159 ± 0.071

Sequence	PBM E-score of 8-mer
CCGTGCTA	0.263 ± 0.0013
ACTCAGCC	-0.1209 ± 0.0012
ACGAGCTG	0.114 ± 0.017
CCATAGGC	-0.139 ± 0.064
CAAGCGCA	0.048 ± 0.03
CTTCTGAC	0.141 ± 0.03
ATCACAGG	0.195 ± 0.099
ACATGAAC	0.0297 ± 0.026
TGCTCCAA	-0.162 ± 0.04
CCACCAAC	0.00885 ± 0.0094
TAAAGACA	-0.128 ± 0.051
GAATGCTC	-0.12 ± 0.075
CGCCTCTC	0.187 ± 0.025
CAGGCTGA	-0.119 ± 0.024
CTCATAAC	-0.0598 ± 0.022
ATGACAAT	0.165 ± 0.021
ACCGGCGT	0.0857 ± 0.039
ATGAATGC	-0.116 ± 0.031
TCGCTACA	-0.02702 ± 9.2e-05
TACGGTGA	0.106 ± 0.093
AGCGGGCC	-0.226 ± 0.039
CGCCCTCC	-0.0753 ± 0.0031

— the supplement of paper PMC4166925
